Measured values: the supplement of paper PMC7125110
± gives the standard error. Variants at the floor of the assay are shown more often than the library holds them.

B1: glmS ribozyme (parent)
chain: AUAAAAGCGCCAGAACUACAGAAAUGUAGUUGACGAGGAGGAGGUUUAUCGAAUUUUCGGCGGAUGCCUCCAAA

Key:
Settings in all cases: with glucosamine-6-phosphate
glucosamine-6-phosphate [1] = variants of: B1; test: self-cleavage kobs at 2500 uM GlcN6P; higher = faster cleavage; RNA array
Summary of the method: (§1)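 Glucosamine-6-phosphate (40 μM to 10 mM) in HEPES/KCl/Mg(OAc)2 buffer was flowed over sequenced MiSeq chips, and tiles were imaged over ~14 h. Barcoded ribozyme variants there had been transcribed in situ by E. coli RNA polymerase and were tracked through a hybridised Cy3 probe at 37 °C. One- or two-exponential decay fits to per-tile medians, normalised to baseline and to non-cleaving reference variants, gave kobs. kcat and KM came from weighted Michaelis–Menten fits across concentrations.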

glucosamine-6-phosphate [2] = variants of: B1; test: self-cleavage kobs at 640 uM GlcN6P; higher = faster cleavage; RNA array
Summary of the method: as §1

glucosamine-6-phosphate [3] = variants of: B1; test: self-cleavage kobs at 160 uM GlcN6P; higher = faster cleavage; RNA array
Summary of the method: as §1

glucosamine-6-phosphate [4] = variants of: B1; test: self-cleavage kobs at 10000 uM GlcN6P; higher = faster cleavage; RNA array
Summary of the method: as §1

A6C U46A C71U
self-cleavage kobs at 2500 uM GlcN6P (glucosamine-6-phosphate [1]): < 1e-05 s⁻¹

G38C U57G G59A
self-cleavage kobs at 640 uM GlcN6P (glucosamine-6-phosphate [2]): < 1e-05 s⁻¹
self-cleavage kobs at 160 uM GlcN6P (glucosamine-6-phosphate [3]): < 1e-05 s⁻¹
self-cleavage kobs at 2500 uM GlcN6P (glucosamine-6-phosphate [1]): < 1e-05 s⁻¹

A39U U49C C68G
self-cleavage kobs at 640 uM GlcN6P (glucosamine-6-phosphate [2]): < 1e-05 s⁻¹
self-cleavage kobs at 2500 uM GlcN6P (glucosamine-6-phosphate [1]): < 1e-05 s⁻¹
self-cleavage kobs at 10000 uM GlcN6P (glucosamine-6-phosphate [4]): < 1e-05 s⁻¹

G13C A14U G32A
self-cleavage kobs at 160 uM GlcN6P (glucosamine-6-phosphate [3]): 0.000741 ± 0.00017 s⁻¹

G37A A39U U54C
self-cleavage kobs at 640 uM GlcN6P (glucosamine-6-phosphate [2]): 0.00016 ± 1.9e-05 s⁻¹
self-cleavage kobs at 160 uM GlcN6P (glucosamine-6-phosphate [3]): 8.28e-05 ± 3.4e-05 s⁻¹
self-cleavage kobs at 2500 uM GlcN6P (glucosamine-6-phosphate [1]): 0.000423 ± 6.7e-05 s⁻¹

G37C A39C C50U G51A
self-cleavage kobs at 160 uM GlcN6P (glucosamine-6-phosphate [3]): < 1e-05 s⁻¹
self-cleavage kobs at 2500 uM GlcN6P (glucosamine-6-phosphate [1]): < 1e-05 s⁻¹

G37A A39G G51U C71G
self-cleavage kobs at 160 uM GlcN6P (glucosamine-6-phosphate [3]): < 1e-05 s⁻¹

G43A A53G G60U
self-cleavage kobs at 640 uM GlcN6P (glucosamine-6-phosphate [2]): < 1e-05 s⁻¹
self-cleavage kobs at 2500 uM GlcN6P (glucosamine-6-phosphate [1]): < 1e-05 s⁻¹

G7C A15U G63C
self-cleavage kobs at 2500 uM GlcN6P (glucosamine-6-phosphate [1]): < 1e-05 s⁻¹

A14C A36U G38C A39G
self-cleavage kobs at 160 uM GlcN6P (glucosamine-6-phosphate [3]): < 1e-05 s⁻¹

A12U G29A G41A C58U
self-cleavage kobs at 160 uM GlcN6P (glucosamine-6-phosphate [3]): < 1e-05 s⁻¹
self-cleavage kobs at 2500 uM GlcN6P (glucosamine-6-phosphate [1]): < 1e-05 s⁻¹

U49G G51A A52G G60C
self-cleavage kobs at 640 uM GlcN6P (glucosamine-6-phosphate [2]): < 1e-05 s⁻¹

G43U G59A G60A C71A
self-cleavage kobs at 640 uM GlcN6P (glucosamine-6-phosphate [2]): < 1e-05 s⁻¹
self-cleavage kobs at 2500 uM GlcN6P (glucosamine-6-phosphate [1]): < 1e-05 s⁻¹

A36G A48G U55A
self-cleavage kobs at 160 uM GlcN6P (glucosamine-6-phosphate [3]): < 1e-05 s⁻¹

G13A C58G G59U
self-cleavage kobs at 160 uM GlcN6P (glucosamine-6-phosphate [3]): < 1e-05 s⁻¹

A15G G59A C70U
self-cleavage kobs at 160 uM GlcN6P (glucosamine-6-phosphate [3]): < 1e-05 s⁻¹

U49G C68U
self-cleavage kobs at 160 uM GlcN6P (glucosamine-6-phosphate [3]): 5.03e-05 ± 2.2e-05 s⁻¹

C16A U46A U55A
self-cleavage kobs at 160 uM GlcN6P (glucosamine-6-phosphate [3]): < 1e-05 s⁻¹

G41C A42C C68A
self-cleavage kobs at 640 uM GlcN6P (glucosamine-6-phosphate [2]): < 1e-05 s⁻¹
self-cleavage kobs at 160 uM GlcN6P (glucosamine-6-phosphate [3]): < 1e-05 s⁻¹
self-cleavage kobs at 2500 uM GlcN6P (glucosamine-6-phosphate [1]): < 1e-05 s⁻¹

G37U A48G C70U
self-cleavage kobs at 640 uM GlcN6P (glucosamine-6-phosphate [2]): < 1e-05 s⁻¹

A39C C61G
self-cleavage kobs at 640 uM GlcN6P (glucosamine-6-phosphate [2]): < 1e-05 s⁻¹
self-cleavage kobs at 160 uM GlcN6P (glucosamine-6-phosphate [3]): < 1e-05 s⁻¹
self-cleavage kobs at 2500 uM GlcN6P (glucosamine-6-phosphate [1]): < 1e-05 s⁻¹
self-cleavage kobs at 10000 uM GlcN6P (glucosamine-6-phosphate [4]): < 1e-05 s⁻¹

G44C U65A C70G
self-cleavage kobs at 640 uM GlcN6P (glucosamine-6-phosphate [2]): < 1e-05 s⁻¹
self-cleavage kobs at 2500 uM GlcN6P (glucosamine-6-phosphate [1]): < 1e-05 s⁻¹
self-cleavage kobs at 10000 uM GlcN6P (glucosamine-6-phosphate [4]): < 1e-05 s⁻¹

G9C G32C A33C A39G C61A
self-cleavage kobs at 160 uM GlcN6P (glucosamine-6-phosphate [3]): < 1e-05 s⁻¹
self-cleavage kobs at 2500 uM GlcN6P (glucosamine-6-phosphate [1]): < 1e-05 s⁻¹

A6C A15G G32U G35U U45G C67A
self-cleavage kobs at 2500 uM GlcN6P (glucosamine-6-phosphate [1]): < 1e-05 s⁻¹

C50A A52U
self-cleavage kobs at 640 uM GlcN6P (glucosamine-6-phosphate [2]): < 1e-05 s⁻¹
self-cleavage kobs at 160 uM GlcN6P (glucosamine-6-phosphate [3]): < 1e-05 s⁻¹
self-cleavage kobs at 2500 uM GlcN6P (glucosamine-6-phosphate [1]): < 1e-05 s⁻¹
self-cleavage kobs at 10000 uM GlcN6P (glucosamine-6-phosphate [4]): < 1e-05 s⁻¹

A48G C70G
self-cleavage kobs at 640 uM GlcN6P (glucosamine-6-phosphate [2]): 8.57e-05 ± 1.8e-05 s⁻¹
self-cleavage kobs at 2500 uM GlcN6P (glucosamine-6-phosphate [1]): 7.26e-05 ± 1.6e-05 s⁻¹
self-cleavage kobs at 10000 uM GlcN6P (glucosamine-6-phosphate [4]): 5.25e-05 ± 9.4e-06 s⁻¹

G7A G9A A14G A36U
self-cleavage kobs at 2500 uM GlcN6P (glucosamine-6-phosphate [1]): < 1e-05 s⁻¹

A6G U47G A48G U56G
self-cleavage kobs at 2500 uM GlcN6P (glucosamine-6-phosphate [1]): < 1e-05 s⁻¹

A36G G43C
self-cleavage kobs at 640 uM GlcN6P (glucosamine-6-phosphate [2]): < 1e-05 s⁻¹
self-cleavage kobs at 2500 uM GlcN6P (glucosamine-6-phosphate [1]): < 1e-05 s⁻¹

U55G U65C C70U
self-cleavage kobs at 640 uM GlcN6P (glucosamine-6-phosphate [2]): 0.00017 ± 3.7e-05 s⁻¹
self-cleavage kobs at 2500 uM GlcN6P (glucosamine-6-phosphate [1]): 0.000458 ± 0.00012 s⁻¹

A6C C61U G62U
self-cleavage kobs at 2500 uM GlcN6P (glucosamine-6-phosphate [1]): < 1e-05 s⁻¹

G37A A42C G51C
self-cleavage kobs at 640 uM GlcN6P (glucosamine-6-phosphate [2]): < 1e-05 s⁻¹

U55G G60C
self-cleavage kobs at 160 uM GlcN6P (glucosamine-6-phosphate [3]): < 1e-05 s⁻¹

A53G C61G G63U
self-cleavage kobs at 640 uM GlcN6P (glucosamine-6-phosphate [2]): < 1e-05 s⁻¹
self-cleavage kobs at 2500 uM GlcN6P (glucosamine-6-phosphate [1]): < 1e-05 s⁻¹

A52C A53C
self-cleavage kobs at 640 uM GlcN6P (glucosamine-6-phosphate [2]): < 1e-05 s⁻¹
self-cleavage kobs at 10000 uM GlcN6P (glucosamine-6-phosphate [4]): < 1e-05 s⁻¹

U49G G51C C58A
self-cleavage kobs at 640 uM GlcN6P (glucosamine-6-phosphate [2]): < 1e-05 s⁻¹

A36G G38U G44C
self-cleavage kobs at 160 uM GlcN6P (glucosamine-6-phosphate [3]): < 1e-05 s⁻¹

G38A A42G G43U
self-cleavage kobs at 640 uM GlcN6P (glucosamine-6-phosphate [2]): < 1e-05 s⁻¹
self-cleavage kobs at 2500 uM GlcN6P (glucosamine-6-phosphate [1]): < 1e-05 s⁻¹

C11G A53G
self-cleavage kobs at 160 uM GlcN6P (glucosamine-6-phosphate [3]): < 1e-05 s⁻¹

C11U G32U G44A A52U G60U
self-cleavage kobs at 160 uM GlcN6P (glucosamine-6-phosphate [3]): < 1e-05 s⁻¹
self-cleavage kobs at 2500 uM GlcN6P (glucosamine-6-phosphate [1]): < 1e-05 s⁻¹

G44C U69A
self-cleavage kobs at 640 uM GlcN6P (glucosamine-6-phosphate [2]): < 1e-05 s⁻¹
self-cleavage kobs at 160 uM GlcN6P (glucosamine-6-phosphate [3]): < 1e-05 s⁻¹
self-cleavage kobs at 2500 uM GlcN6P (glucosamine-6-phosphate [1]): < 1e-05 s⁻¹
self-cleavage kobs at 10000 uM GlcN6P (glucosamine-6-phosphate [4]): < 1e-05 s⁻¹

A39C U47G
self-cleavage kobs at 640 uM GlcN6P (glucosamine-6-phosphate [2]): 0.000286 ± 5.5e-05 s⁻¹

G40A G66U
self-cleavage kobs at 640 uM GlcN6P (glucosamine-6-phosphate [2]): 6.02e-05 ± 1.2e-05 s⁻¹
self-cleavage kobs at 2500 uM GlcN6P (glucosamine-6-phosphate [1]): 0.000124 ± 2e-05 s⁻¹
self-cleavage kobs at 10000 uM GlcN6P (glucosamine-6-phosphate [4]): 0.000203 ± 3.5e-05 s⁻¹

G40C A64C U65A C67A
self-cleavage kobs at 640 uM GlcN6P (glucosamine-6-phosphate [2]): < 1e-05 s⁻¹

A33C U46A C67G C70G
self-cleavage kobs at 160 uM GlcN6P (glucosamine-6-phosphate [3]): < 1e-05 s⁻¹
self-cleavage kobs at 2500 uM GlcN6P (glucosamine-6-phosphate [1]): < 1e-05 s⁻¹

C10G U47G G60U
self-cleavage kobs at 160 uM GlcN6P (glucosamine-6-phosphate [3]): < 1e-05 s⁻¹

U47C G60U C71U
self-cleavage kobs at 160 uM GlcN6P (glucosamine-6-phosphate [3]): < 1e-05 s⁻¹
self-cleavage kobs at 2500 uM GlcN6P (glucosamine-6-phosphate [1]): < 1e-05 s⁻¹

U46A G59A
self-cleavage kobs at 160 uM GlcN6P (glucosamine-6-phosphate [3]): < 1e-05 s⁻¹
self-cleavage kobs at 2500 uM GlcN6P (glucosamine-6-phosphate [1]): < 1e-05 s⁻¹
self-cleavage kobs at 10000 uM GlcN6P (glucosamine-6-phosphate [4]): < 1e-05 s⁻¹

A39G G44C
self-cleavage kobs at 640 uM GlcN6P (glucosamine-6-phosphate [2]): 0.000101 ± 1.9e-05 s⁻¹
self-cleavage kobs at 2500 uM GlcN6P (glucosamine-6-phosphate [1]): 0.000327 ± 6.4e-05 s⁻¹
self-cleavage kobs at 10000 uM GlcN6P (glucosamine-6-phosphate [4]): 0.000394 ± 4.8e-05 s⁻¹

G7C G62C A64G
self-cleavage kobs at 2500 uM GlcN6P (glucosamine-6-phosphate [1]): < 1e-05 s⁻¹

G7A C16U G29A U31C G60A G62U U69C
self-cleavage kobs at 2500 uM GlcN6P (glucosamine-6-phosphate [1]): < 1e-05 s⁻¹

A6C U55G
self-cleavage kobs at 160 uM GlcN6P (glucosamine-6-phosphate [3]): < 1e-05 s⁻¹

A6C C68U
self-cleavage kobs at 2500 uM GlcN6P (glucosamine-6-phosphate [1]): 3.96e-05 ± 9.1e-06 s⁻¹
self-cleavage kobs at 10000 uM GlcN6P (glucosamine-6-phosphate [4]): 4.19e-05 ± 6.8e-06 s⁻¹

G38U A39G G60C C68A
self-cleavage kobs at 640 uM GlcN6P (glucosamine-6-phosphate [2]): < 1e-05 s⁻¹
self-cleavage kobs at 2500 uM GlcN6P (glucosamine-6-phosphate [1]): < 1e-05 s⁻¹

G7U G13C G44U C50G C67G
self-cleavage kobs at 2500 uM GlcN6P (glucosamine-6-phosphate [1]): < 1e-05 s⁻¹

C10U A12U A14G G41U
self-cleavage kobs at 160 uM GlcN6P (glucosamine-6-phosphate [3]): < 1e-05 s⁻¹

A48G U49A
self-cleavage kobs at 640 uM GlcN6P (glucosamine-6-phosphate [2]): < 1e-05 s⁻¹
self-cleavage kobs at 10000 uM GlcN6P (glucosamine-6-phosphate [4]): < 1e-05 s⁻¹

G40A C50U G51A G63A U65A
self-cleavage kobs at 640 uM GlcN6P (glucosamine-6-phosphate [2]): < 1e-05 s⁻¹
self-cleavage kobs at 160 uM GlcN6P (glucosamine-6-phosphate [3]): < 1e-05 s⁻¹
self-cleavage kobs at 2500 uM GlcN6P (glucosamine-6-phosphate [1]): < 1e-05 s⁻¹

U30C U31C C67U
self-cleavage kobs at 160 uM GlcN6P (glucosamine-6-phosphate [3]): < 1e-05 s⁻¹

A14C G63U
self-cleavage kobs at 160 uM GlcN6P (glucosamine-6-phosphate [3]): < 1e-05 s⁻¹
self-cleavage kobs at 10000 uM GlcN6P (glucosamine-6-phosphate [4]): < 1e-05 s⁻¹

G38A G44A G66U
self-cleavage kobs at 160 uM GlcN6P (glucosamine-6-phosphate [3]): < 1e-05 s⁻¹
self-cleavage kobs at 2500 uM GlcN6P (glucosamine-6-phosphate [1]): < 1e-05 s⁻¹

A53C C67G C71G
self-cleavage kobs at 640 uM GlcN6P (glucosamine-6-phosphate [2]): < 1e-05 s⁻¹
